72 sequences from the supplement of paper PMC10338343 can be followed below.

± gives the standard deviation. The full ranking holds about 3,700 sequences; the median of “pre-steady-state target cleavage rate” is about 0.02, and the highest 2% start at about 0.23. This is a selection; strong and weak results do not stand in their true shares.

The test concerns MILI (PIWIL2) piRISC loaded with Kctd7 piRNA (26 nt). Kind of test: pre-steady-state target cleavage rate (min^-1); MIWI and MILI are mouse PIWI proteins and EfPiwi is from a freshwater sponge; tags in brackets are library labels; higher = faster piRNA-guided slicing of the target. Conditions: guide: Kctd7 piRNA 5'p-UGUUAAUCUCUCAGAGAAGGUGACAG; auxiliary factor: 500 nM mouse GTSF1. A digest of the protocol: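 Cleave-'n-Seq used a transcribed, DNA-blocked target RNA library at 0.1 nM and active affinity-purified piRISC with one synthetic guide at 1 nM, with or without 500 nM GTSF1 partner protein, in HEPES–potassium acetate buffer at 33 °C for 0–8 or 0–960 min. Uncleaved targets were sequenced and normalised to depth and to weakly complementary targets, and three trials were pooled with k3 capped at 0.0001 min^-1. The pre-steady-state cleavage rate was estimated by a burst-and-steady-state fit.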
As to UAGUGACUCACCUUCUCUGAGAGAGUAACA, the “pre-steady-state target cleavage rate” value was determined as 0.133 ± 0.029.

Consider UAGUGUGUCACCUACUCUGAGAGAUUAACA, for which the “pre-steady-state target cleavage rate” value turned out to be 0.208 ± 0.017.

For the sequence UAGUGUGUCACCUUCUCGUGAGAGAUUAACA, the “pre-steady-state target cleavage rate” value was 0.012 ± 0.0063.

With UAGUGACAGACCUUCUCUCAGAGAUUAACA, the “pre-steady-state target cleavage rate” value amounted to 0.0249 ± 0.007.

UAGUGACAGUCCAUCUGUGAGAGAUUAACA: the “pre-steady-state target cleavage rate” value turned out to be 0.0105 ± 0.0034.

With UAGUGACUCACCUUCUGUCAGAGAUUAACA, the “pre-steady-state target cleavage rate” value was 0.0422 ± 0.0076.

On to UAGUCAGACACCUUCUCUGAGAGAUUAACA, for which the “pre-steady-state target cleavage rate” value is 0.183 ± 0.0079.

Turning to UAGUCUGUCACUUCUCUGAGAGAUUAACA, the “pre-steady-state target cleavage rate” value is 0.124 ± 0.0085.

Take UAGUCUGUCAGCUUCUCUGAGAGAAUAACA: the “pre-steady-state target cleavage rate” value was 0.0658 ± 0.013.

With UAGUCUGUCACCUUCUCUGAGGGAUUAACA, the “pre-steady-state target cleavage rate” value worked out at 0.0945 ± 0.012.

As to UAGUGACAGUCCUACUCUGAGAGUUUAACA, the “pre-steady-state target cleavage rate” value stood at 0.00579 ± 0.0019.

Take UAGUGACAGACCUUCAUCUGAGAGAUUAACA: the “pre-steady-state target cleavage rate” value was found to be 0.00437 ± 0.0038.

Regarding UAGUGACUCAGCUUCUCUGAGAGUUUAACA, the “pre-steady-state target cleavage rate” value is 0.0246 ± 0.006.

Consider UAGUGAGUCACCUUCUCAGAGAGAUUAACA, for which the “pre-steady-state target cleavage rate” value came to 0.173 ± 0.022.

On to UAGUGACACACCUUCUCAGAGAGAUUUUGA, for which the “pre-steady-state target cleavage rate” value worked out at 0.0098 ± 0.0042.

In the case of UAGUGAGUCACCAUCUCUGAGAGAUUAUCA, the “pre-steady-state target cleavage rate” value is 0.113 ± 0.029.

Take UAGUGAGUCACCUAGUCUGAGAGAUUAACA: the “pre-steady-state target cleavage rate” value turned out to be 0.11 ± 0.01.

Regarding UAGUGACUCAGCCUUCUCUGAGAGAUUAACA, the “pre-steady-state target cleavage rate” value amounted to 0.0676 ± 0.007.

Turning to UAGUGUCUCACCUUCUCUGAGAGAUUAACA, the “pre-steady-state target cleavage rate” value came to 0.224 ± 0.014.

For UAGUGAGUCACUUUCUCUGAGAGAUUAACA, the “pre-steady-state target cleavage rate” value stood at 0.177 ± 0.011.

Take UAGUGUGUCACCUUCUGUGAGAGAAUAACA: the “pre-steady-state target cleavage rate” value was 0.0347 ± 0.0075.

For UAGUGAGUCACCUACUCUGAGUGAUUAACA, the “pre-steady-state target cleavage rate” value is 0.00445 ± 0.0041.

In the case of UAGUGACAGUCCUUCUCUGAGAGCUUAACA, the “pre-steady-state target cleavage rate” value amounted to 0.0198 ± 0.0034.

As for UAGUGACAGUGGAAGUCUGAGAAAUUAACA, the “pre-steady-state target cleavage rate” value was under 0.0001.

In the case of UAGUGUGUCAGCUUCUCUGAGUGAUUAACA, the “pre-steady-state target cleavage rate” value is 0.00574 ± 0.003.

On to UAGUGACACACCUUCUCUGAGAGUAAAACA, for which the “pre-steady-state target cleavage rate” value is 0.0332 ± 0.014.

Turning to UAGUGACUCACCUUCUCUGAGAGAUUAUACA, the “pre-steady-state target cleavage rate” value was found to be 0.114 ± 0.021.

In the case of UAGUGACUCACCUUCUGAGAGAGAUUAACA, the “pre-steady-state target cleavage rate” value turned out to be 0.0543 ± 0.0096.

On to UAGUGUGUCUCCUUCUCUGAGAGAUAAACA, for which the “pre-steady-state target cleavage rate” value came out at 0.00708 ± 0.0048.

For the sequence UAGUCUGUCACCUUCUCUGUGAGAUUAAGA, the “pre-steady-state target cleavage rate” value was determined as 0.0263 ± 0.0088.

Take UAGUGACUCACCUUCUCAGAGAGAUAUUGA: the “pre-steady-state target cleavage rate” value worked out at 0.00678 ± 0.003.

Regarding UAGUCUGUCACGUUCACUGAGAGAUUAACA, the “pre-steady-state target cleavage rate” value was found to be 0.119 ± 0.008.

Take UAGUGACUCACCUUCUCAGAGAGAUUAAGA: the “pre-steady-state target cleavage rate” value was 0.0422 ± 0.0072.

For UAGUGACAGUGGAACUGUGAGAGAUUUACA, the “pre-steady-state target cleavage rate” value was under 0.0001.

On to UAGUGACACACCUUCCCUGAGAGAUUAACA, for which the “pre-steady-state target cleavage rate” value worked out at 0.21 ± 0.054.

On to UAGUGACACACCUACUCUCAGAGAUUAACA, for which the “pre-steady-state target cleavage rate” value worked out at 0.0247 ± 0.0061.

For UAGUGACAGUGGAAGAGACAGAAGAUUAACA, the “pre-steady-state target cleavage rate” value was under 0.0001.

Regarding UAGUGACUCACGUUCUGUGAGAGAUUAACA, the “pre-steady-state target cleavage rate” value is 0.0941 ± 0.014.

As to UAGUGAGUCACCAUCUCUGAGAGAUUAUGA, the “pre-steady-state target cleavage rate” value was 0.023 ± 0.01.

On to UAGUGACAGUCCUUCUCUGAGAGACUAACA, for which the “pre-steady-state target cleavage rate” value was determined as 0.0185 ± 0.004.

For the sequence UAGUGACAGUGGAAGACUCACAGAUUAACA, the “pre-steady-state target cleavage rate” value was under 0.0001.

Regarding UAGUGAGUCACCUUCUCUGAGAGAAUUAACA, the “pre-steady-state target cleavage rate” value came out at 0.318 ± 0.059.

With UAGUGUGUCUCCUUCUCUGUGAGAUUAACA, the “pre-steady-state target cleavage rate” value was found to be 0.0296 ± 0.0065.

In the case of UAGUCUGUCACCUUCCCUGAGAGAUUAACA, the “pre-steady-state target cleavage rate” value was found to be 0.203 ± 0.034.

As to UAGUGACUCAGCUUCUCUGAGAGAAUAACA, the “pre-steady-state target cleavage rate” value amounted to 0.00794 ± 0.003.

Regarding UAGUCUGUCACGUACUCUGAGAGAUUAACA, the “pre-steady-state target cleavage rate” value is 0.129 ± 0.0057.

For UAGUCAGUCACCUACUCUGAGAGAUUAACA, the “pre-steady-state target cleavage rate” value came to 0.198 ± 0.0093.

As to UAGUGACAGACGUUCUCUGAGAGAUUAUCA, the “pre-steady-state target cleavage rate” value came out at 0.0188 ± 0.0066.

As to UAGUCUGUCACCUUCUCUCUGAGAUUAACA, the “pre-steady-state target cleavage rate” value amounted to 0.00967 ± 0.0028.

In the case of UAGUGACUCUCCUUCUCUGACAGAUUAACA, the “pre-steady-state target cleavage rate” value is 0.0546 ± 0.0059.

On to UAGUGACAGUGGUCUCUGAGAGAUUAACA, for which the “pre-steady-state target cleavage rate” value stood at 0.00469 ± 0.0014.

In the case of UAGUCUGUCACCUUGAGUGAGAGAUUAACA, the “pre-steady-state target cleavage rate” value was determined as 0.028 ± 0.0049.

In the case of UAGUGACAGUGGAAGUCUGACAGUUUAACA, the “pre-steady-state target cleavage rate” value was under 0.0001.

As to UAGUGAGUCACCUUCUCAGAGAGAAUAACA, the “pre-steady-state target cleavage rate” value was 0.0207 ± 0.0083.

In the case of UAGUGACAGUGGUUUCUGAGAGAUUAACA, the “pre-steady-state target cleavage rate” value came to 0.00579 ± 0.0018.

As to UAGUGACACACCUUCUCACUGAGAUUAACA, the “pre-steady-state target cleavage rate” value was 0.00782 ± 0.0033.

For the sequence UAGUGACUCACCUUCUCUGUAGAGAUUAACA, the “pre-steady-state target cleavage rate” value came to 0.00534 ± 0.002.

In the case of UAGUGACAGUGGAUCUCUGGAGAUUAACA, the “pre-steady-state target cleavage rate” value was under 0.0001.

With UAGUGACACACCUUCUCUGAGAGAUAACA, the “pre-steady-state target cleavage rate” value worked out at 0.0132 ± 0.0057.

In the case of UAGUGACUCGACCUUCUCUGAGAGAUUAACA, the “pre-steady-state target cleavage rate” value came out at 0.0771 ± 0.0072.

Take UAGUGAGUCACCUUGACUGAGAGAUUAACA: the “pre-steady-state target cleavage rate” value was determined as 0.0389 ± 0.008.

For the sequence UAGUCUGUCUACCUUCUCUGAGAGAUUAACA, the “pre-steady-state target cleavage rate” value was 0.0395 ± 0.009.

As for UAGUGAGUCAGCUUCUCUGUGAGAUUAACA, the “pre-steady-state target cleavage rate” value came out at 0.0478 ± 0.0051.

For the sequence UAGUGUGUCACCUUCUCGAGAGAUUAACA, the “pre-steady-state target cleavage rate” value amounted to 0.0644 ± 0.013.

Consider UAGUGACUCACCUUCUCUUAGAGAUUAACA, for which the “pre-steady-state target cleavage rate” value was 0.0571 ± 0.0067.

As for UAGUCUGUCUCCUUCUCUCAGAGAUUAACA, the “pre-steady-state target cleavage rate” value turned out to be 0.0427 ± 0.0053.

On to UAGUGACAGACCUUCUCUGAGAGUUAAACA, for which the “pre-steady-state target cleavage rate” value was determined as 0.0116 ± 0.0061.

As for UAGUCUGUCACCUUCUCUGAGAGAUUAUGA, the “pre-steady-state target cleavage rate” value worked out at 0.0358 ± 0.012.

For UAGUGACACACCUUCUCAGAGAGAUUAAGA, the “pre-steady-state target cleavage rate” value is 0.0281 ± 0.011.

Regarding UAGUCUGAUCACCUUCUCUGAGAGAUUAACA, the “pre-steady-state target cleavage rate” value worked out at 0.192 ± 0.012.

Consider UAGUGUGUUACCUUCUCUGAGAGAUUAACA, for which the “pre-steady-state target cleavage rate” value is 0.119 ± 0.017.

On to UAGUGACUGUGCUUCUCUGAGAGAUUAACA, for which the “pre-steady-state target cleavage rate” value was found to be 0.177 ± 0.0085.
